The list shows a part of the results. Rule as the data show it: active = 3.2 or more and inactive = the rest. Only a few entries rise above the background.
Target: SHP2 C-SH2 domain E139D
Assay: enrichment score (SH2-bound / input frequency) (ratio); bacterial display of known human phosphotyrosine sites (pTyr-Var adds point mutants) read by sequencing; higher = stronger binding; tyrosines were phosphorylated by kinases first
Settings: peptide library: pTyr-Var
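Also: displayed peptides selected on beads carrying the immobilized SH2 domain, with library peptides lacking any tyrosine serving as negative controls.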

Enrichment score, inactive:
MGCVNYGAYIN [GLB1_Y485_R482C] 0.909
MGCVNYGAFIN [GLB1_Y485_R482C_YF] 0.84
VNYGAYINDFK [GLB1_Y488] 1.27
VNYGAYINYFK [GLB1_Y488_D491Y] 1.81
VNYGAYINDFN [GLB1_Y488_K493N] 1.26
VKYGAYINDFK [GLB1_Y488_N484K] 1.01
VNFGAYINDFK [GLB1_Y488_YF] 0.729
TLPAFYMGNFS [GLB1_Y552] 1.38
TLPAFYMENFS [GLB1_Y552_G554E] 0.93
ILNANCMAKRL [GLDC_Y839_Y839C] 0.781
EPSVPYRGMVF [GLI3_Y104_T107M] 0.562
GKVADYIPQLA [GLS_Y249] 0.937
GKVADYIPQLP [GLS_Y249_A254P] 0.994
YSGLAYTMERS [GLUD1_Y512_H507Y] 0.952
QEKKGYFEDRR [GLUL_Y336] 0.64
LNLKDYNLVGG [GNAQ_Y356_E355D] 0.794
MHRRQYELLGG [GNAS_Y391_L388R] 0.649
TIWDSYTTNKV [GNB1_Y85_I80T] 1.34

Target: SHP2 C-SH2 domain wild-type
Assay: as above
Settings: peptide library: pTyr-Var

Enrichment score, inactive:
MGCVNYGAYIN [GLB1_Y485_R482C] 1.01
MGCVNYGAFIN [GLB1_Y485_R482C_YF] 1.08
VNYGAYINDFK [GLB1_Y488] 1.37
VNYGAYINYFK [GLB1_Y488_D491Y] 1.96
VNYGAYINDFN [GLB1_Y488_K493N] 1.08
VKYGAYINDFK [GLB1_Y488_N484K] 1.1
VNFGAYINDFK [GLB1_Y488_YF] 0.79
TLPAFYMGNFS [GLB1_Y552] 1.04
TLPAFYMENFS [GLB1_Y552_G554E] 1.16
ILNANCMAKRL [GLDC_Y839_Y839C] 0.535
EPSVPYRGMVF [GLI3_Y104_T107M] 0.744
GKVADYIPQLA [GLS_Y249] 0.9
GKVADYIPQLP [GLS_Y249_A254P] 0.863
YSGLAYTMERS [GLUD1_Y512_H507Y] 1.18
QEKKGYFEDRR [GLUL_Y336] 0.532
LNLKDYNLVGG [GNAQ_Y356_E355D] 0.654
MHRRQYELLGG [GNAS_Y391_L388R] 0.44
TIWDSYTTNKV [GNB1_Y85_I80T] 1.02

Target: SHP2 N-SH2 domain L43F
Assay: as above
Settings: peptide library: pTyr-Var

Enrichment score, inactive:
MGCVNYGAYIN [GLB1_Y485_R482C] 1.04
MGCVNYGAFIN [GLB1_Y485_R482C_YF] 0.989
VNYGAYINDFK [GLB1_Y488] 1.29
VNYGAYINYFK [GLB1_Y488_D491Y] 1.14
VNYGAYINDFN [GLB1_Y488_K493N] 1.42
VKYGAYINDFK [GLB1_Y488_N484K] 0.985
VNFGAYINDFK [GLB1_Y488_YF] 0.493
TLPAFYMGNFS [GLB1_Y552] 1.14
TLPAFYMENFS [GLB1_Y552_G554E] 1.22
ILNANCMAKRL [GLDC_Y839_Y839C] 0.765
EPSVPYRGMVF [GLI3_Y104_T107M] 0.714
GKVADYIPQLA [GLS_Y249] 0.775
GKVADYIPQLP [GLS_Y249_A254P] 0.877
YSGLAYTMERS [GLUD1_Y512_H507Y] 0.716
QEKKGYFEDRR [GLUL_Y336] 0.629
LNLKDYNLVGG [GNAQ_Y356_E355D] 0.775
MHRRQYELLGG [GNAS_Y391_L388R] 0.723
TIWDSYTTNKV [GNB1_Y85_I80T] 1.03

Target: SHP2 N-SH2 domain T42A
Assay: as above
Settings: peptide library: pTyr-Var

Enrichment score, inactive:
MGCVNYGAYIN [GLB1_Y485_R482C] 0.885
MGCVNYGAFIN [GLB1_Y485_R482C_YF] 0.69
VNYGAYINDFK [GLB1_Y488] 2.16
VNYGAYINYFK [GLB1_Y488_D491Y] 2.17
VNYGAYINDFN [GLB1_Y488_K493N] 2.64
VKYGAYINDFK [GLB1_Y488_N484K] 1.55
VNFGAYINDFK [GLB1_Y488_YF] 0.534
TLPAFYMGNFS [GLB1_Y552] 1.4
TLPAFYMENFS [GLB1_Y552_G554E] 0.93
ILNANCMAKRL [GLDC_Y839_Y839C] 0.746
EPSVPYRGMVF [GLI3_Y104_T107M] 0.54
GKVADYIPQLA [GLS_Y249] 0.605
GKVADYIPQLP [GLS_Y249_A254P] 0.829
YSGLAYTMERS [GLUD1_Y512_H507Y] 0.671
QEKKGYFEDRR [GLUL_Y336] 0.856
LNLKDYNLVGG [GNAQ_Y356_E355D] 0.856
MHRRQYELLGG [GNAS_Y391_L388R] 0.588
TIWDSYTTNKV [GNB1_Y85_I80T] 0.889

Target: SHP2 N-SH2 domain T52S
Assay: as above
Settings: peptide library: pTyr-Var

Enrichment score, inactive:
MGCVNYGAYIN [GLB1_Y485_R482C] 0.896
MGCVNYGAFIN [GLB1_Y485_R482C_YF] 0.823
VNYGAYINDFK [GLB1_Y488] 1.13
VNYGAYINYFK [GLB1_Y488_D491Y] 1.57
VNYGAYINDFN [GLB1_Y488_K493N] 1.14
VKYGAYINDFK [GLB1_Y488_N484K] 0.975
VNFGAYINDFK [GLB1_Y488_YF] 0.516
TLPAFYMGNFS [GLB1_Y552] 1.37
TLPAFYMENFS [GLB1_Y552_G554E] 0.958
ILNANCMAKRL [GLDC_Y839_Y839C] 0.553
EPSVPYRGMVF [GLI3_Y104_T107M] 0.575
GKVADYIPQLA [GLS_Y249] 0.834
GKVADYIPQLP [GLS_Y249_A254P] 0.907
YSGLAYTMERS [GLUD1_Y512_H507Y] 0.82
QEKKGYFEDRR [GLUL_Y336] 0.561
LNLKDYNLVGG [GNAQ_Y356_E355D] 0.751
MHRRQYELLGG [GNAS_Y391_L388R] 0.72
TIWDSYTTNKV [GNB1_Y85_I80T] 1.13

Target: SHP2 N-SH2 domain wild-type
Assay: as above
Settings: peptide library: pTyr-Var

Enrichment score, inactive:
MGCVNYGAYIN [GLB1_Y485_R482C] 1.44
MGCVNYGAFIN [GLB1_Y485_R482C_YF] 1.31
VNYGAYINDFK [GLB1_Y488] 1.49
VNYGAYINYFK [GLB1_Y488_D491Y] 1.63
VNYGAYINDFN [GLB1_Y488_K493N] 1.33
VKYGAYINDFK [GLB1_Y488_N484K] 0.937
VNFGAYINDFK [GLB1_Y488_YF] 0.733
TLPAFYMGNFS [GLB1_Y552] 1.05
TLPAFYMENFS [GLB1_Y552_G554E] 1.19
ILNANCMAKRL [GLDC_Y839_Y839C] 0.678
EPSVPYRGMVF [GLI3_Y104_T107M] 0.621
GKVADYIPQLA [GLS_Y249] 0.567
GKVADYIPQLP [GLS_Y249_A254P] 1.09
YSGLAYTMERS [GLUD1_Y512_H507Y] 0.792
QEKKGYFEDRR [GLUL_Y336] 0.865
LNLKDYNLVGG [GNAQ_Y356_E355D] 0.702
MHRRQYELLGG [GNAS_Y391_L388R] 0.591
TIWDSYTTNKV [GNB1_Y85_I80T] 0.951
